Measured values: the supplement of paper PMC3334620
Whole data set: some 33,000 sequences, median “E-score (-0.5 to 0.5)” near -0.01, cut for the highest 2% near 0.26. This is one part of the list.

Each sequence was assayed against Ste12 (UniProt P13574) (assay: PBM E-score (8-mer binding enrichment) (E-score (-0.5 to 0.5)); higher = stronger / more preferred TF binding; most listed sequences are background and not binding sites). Details: protein concentration: 200 nM; construct: GST-DNA-binding domain.
In short: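 Each ungapped eight-base word and its reverse complement, pooled, received an E-score from the Universal PBM Analysis Suite. Underlying scans, normalised with masliner, recorded fluorescent anti-GST bound to GST-tagged yeast transcription factors. These were applied at about 100-200 nM to universal all-10-mer Agilent arrays double-stranded by primer extension.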

| Sequence | PBM E-score |
| --- | --- |
| CCAGTCCG | -0.198 |
| GGGTTACC | -0.188 |
| AACAGATC | 0.11 |
| GTTGGCTA | 0.107 |
| ACGCGCCC | -0.0509 |
| CGTGCAAC | 0.0201 |
| GTCTTAGA | -0.0535 |
| GCTGCTAA | -0.101 |
| AATACAGG | 0.0997 |
| AGGCTTAT | -0.135 |
| ATAACGGA | 0.145 |
| ATAGCCTA | -0.0275 |
| AGATTCCC | -0.0921 |
| ACGATGGG | -0.0771 |
| CTATAACA | -0.157 |
| CCCCTCCA | 0.246 |
| CGCTCTCC | -0.244 |
| ACATGAAT | 0.09 |
| CCTGGGGC | -0.246 |
| AACTGCTC | -0.22 |
| CATCTGCC | -0.194 |
| CTCCGCAC | -0.172 |
| GCCCTCAC | -0.144 |
| TAATCAGA | 0.0528 |
| CATTTCAC | 0.099 |

| Sequence | PBM E-score |
| --- | --- |
| CTGCCGTC | -0.112 |
| GAAATCCA | 0.174 |
| GGTTAATA | 0.0275 |
| CAGCTGGG | -0.0962 |
| CTTCGCTC | -0.224 |
| CTGTTGCC | -0.0857 |
| GACTTTTA | 0.0969 |
| ATAGACCG | -0.17 |
| CTAACGAA | 0.11 |
| GGGTGAAC | -0.0519 |
| CTGTTCGA | 0.0108 |
| AAGTGATT | 0.0453 |
| ATTCCTCC | -0.0519 |
| ATAGCCCG | -0.113 |
| ACGATTAG | -0.0979 |
| GTGTTTAA | 0.155 |
| GCAAAAGA | -0.0961 |
| AGGGACTG | -0.125 |
| ATACGCGG | 0.0476 |
| GATGGTAC | -0.11 |
| ACAACCCC | 0.0635 |
| ATCAGATC | 0.0245 |
| CAATTGTA | -0.131 |
| ATCCAGTC | -0.037 |
| AAGCGGTC | -0.0133 |

| Sequence | PBM E-score |
| --- | --- |
| ACGTTCAG | -0.00054 |
| GCGGTACA | -0.0812 |
| AGCACACT | -0.151 |
| AACGAGTA | 0.0916 |
| CGTGGATA | -0.138 |
| ATCAAACC | 0.217 |
| GCATAGCC | -0.244 |
| AGACTACC | -0.179 |
| AATAGGAA | 0.0659 |
| TGCCGAAA | 0.0752 |
| CCGCTATA | -0.0533 |
| AATCACCG | -0.0132 |
| AGAGGTTA | 0.0445 |
| AATTCGAT | 0.141 |
| GTACTCAA | 0.0222 |
| ACGTGGGA | -0.0587 |
| AGGCTATC | -0.011 |
| ACAACTCA | 0.253 |
| CCAGACGG | -0.143 |
| ATTGGAGA | 0.0798 |
| AATTGGAA | 0.132 |
| CGGTGCGA | -0.00226 |
| CGATGCCC | -0.232 |
| AACTCGAT | 0.0663 |
| AAGACCAC | -0.121 |

| Sequence | PBM E-score |
| --- | --- |
| CTCATTGA | -0.14 |
| AGGATGGC | -0.196 |
| ACACTCCG | -0.016 |
| CAGAGTGA | -0.0253 |
| CAGTGTGC | -0.187 |
| ATAAGATA | 0.0792 |
| AAACCGTT | 0.00687 |
| GTAGGCGA | -0.243 |
| AGTATAAG | 0.158 |
| CGACAGTC | -0.278 |
| CGAGAGTA | 0.17 |
| AGCAGCTG | -0.0339 |
| CCAGAGAG | -0.096 |
| CGCTGGCC | -0.208 |
| GTAGCCAA | 0.0142 |
| GTCTTTGA | 0.0928 |
| CCACGATC | -0.0417 |
| ACGTTTAT | 0.0324 |
| AGCAGACG | -0.0594 |
| CGCTGCCA | -0.031 |
| TAGGTACA | -0.233 |
| CAACATCA | 0.0676 |
| CCTGCGGA | -0.047 |
| AGGCCAGC | -0.157 |
| GATAACGC | 0.0885 |

| Sequence | PBM E-score |
| --- | --- |
| CAGATACA | 0.0012 |
| ACCCCCCC | -0.271 |
| ACCCCGGC | -0.0462 |
| CTCAAGTA | -0.113 |
| ACCAAAAT | 0.254 |
| CATGCATC | 0.0744 |
| CGATAACG | -0.0902 |
| CCCCTGCC | -0.0546 |
| AACAGGGT | 0.029 |
| ATGGATAG | -0.0389 |
| ATAGACAA | -0.00012 |
| AGTTGCGC | -0.0533 |
| TCACATGA | -0.0361 |
| GAATACGA | 0.112 |
| GGGGACAA | 0.0866 |
| AACTACTG | -0.0535 |
| CACGAGTA | -0.0155 |
| AAGTTAGT | -0.0238 |
| ACAGGGTA | -0.0612 |
| GGGGGGGA | -0.298 |
| AAGTAACG | 0.141 |
| GGGGGTAA | 0.017 |
| GGATTGAA | 0.0779 |
| AGGCGTTC | -0.164 |
| ATTCGAGC | -0.143 |

| Sequence | PBM E-score |
| --- | --- |
| TATAGACA | -0.0568 |
| GTATGAAA | 0.338 |
| GATGAGGA | -0.072 |
| ATCGCCCA | -0.129 |
| CTGACGTC | -0.0868 |
| GAGAGATC | -0.0454 |
| AATTGGGT | 0.235 |
| TCGATGCA | 0.0454 |
| AAATCGAC | 0.0499 |
| AAACGCTC | 0.0194 |
| CGTAGCAC | -0.026 |
| AGACAAGC | -0.0877 |
| CTTCGGAC | -0.171 |
| TGATACCA | -0.0783 |
| ATCATTGC | -0.039 |
| GCGGCGAC | 0.0909 |
| ACAACCAC | 0.121 |
| CCACCGGA | 0.183 |
| CCTCATAA | 0.0824 |
| AGTTGGTG | -0.0916 |
| ACATGGCT | -0.129 |
| ATGGATTA | -0.176 |
| ACTCTGGG | -0.167 |
| AGCGCTCG | -0.0848 |
| CCTCGCAC | 0.064 |

| Sequence | PBM E-score |
| --- | --- |
| TCTGACCA | -0.0404 |
| CTTCTCAC | 0.0653 |
| CGACCCAG | 0.0732 |
| CCCTCGGA | 0.101 |
| CAGGCCGA | 0.124 |
| ACAACGAT | -0.0524 |
| ACACGACA | 0.109 |
| TCCGTAAA | 0.102 |
| GTAGAGCA | -0.216 |
| AGCCGGCG | 0.106 |
| ATCGCTGC | 0.03 |
| ATGCAATG | -4e-05 |
| CCGGGGGA | 0.0425 |
| AGACAGGA | 0.118 |
| GAGGCATC | -0.157 |
| TGCAGCAA | 0.0678 |
| GAAACGCC | 0.288 |
| AGTTTCGG | 0.217 |
| ATTATGGA | 0.135 |
| AAATGGGT | 0.105 |
| CTGATCTC | -0.121 |
| CAAATCTC | 0.0124 |
| GCACAACC | -0.122 |
| CAGTTGCC | 0.0207 |
| GGGGTTTA | 0.00666 |

| Sequence | PBM E-score |
| --- | --- |
| ACCCTACT | -0.268 |
| AAGGGGCA | -0.132 |
| CTTCCTTA | -0.0663 |
| CCCTGTGC | 0.0789 |
| GATGTTGA | -0.0544 |
| CAAGCTGA | 0.0548 |
| CCAGTGAG | -0.25 |
| CCTGTCCA | -0.225 |
| AATCGTCC | -0.00603 |
| CCACCGCG | -0.0242 |
| TACGTCGA | 0.0119 |
| TACTCCGA | -0.0128 |
| CTAACATC | 0.0222 |
| ACAAGGCT | -0.224 |
| GCCCGGAA | 0.11 |
| ACGTCCTG | -0.0264 |
| CAGAATAG | 0.111 |
| CTGGGATC | -0.268 |
| TAAAGCCA | -0.0183 |
| TCATGTCA | -0.108 |
| CCAAGTCC | -0.166 |
| AAGGCGCC | -0.105 |
| CATTATAC | 0.171 |
| CTCATTCA | 0.0934 |
| ATGAGCCC | -0.163 |

| Sequence | PBM E-score |
| --- | --- |
| GCGTTGGA | -0.11 |
| CCAGCCTC | -0.182 |
| CTTAAGAA | 0.0922 |
| GAGCCTGC | -0.0484 |
| AAACGGAC | 0.149 |
| ATGTCGAG | -0.11 |
| GGTCGAGA | -0.125 |
| ACGATCCG | 0.00957 |
| ATTGCGTG | 0.018 |
| ACCACAAG | -0.0155 |
| CGGTCCGC | -0.00204 |
| TTAGCTAA | -0.0555 |
| ACTACAAA | 0.157 |
| CCAAGAAC | -0.11 |
| AGTTCAAT | -0.0355 |
| CCGCCTAC | -0.104 |
| ACCTAATG | -0.134 |
| GTCCACAA | 0.039 |
| GCACACAC | -0.164 |
